Assay results as given in PubChem BioAssay AID1345083 (National Center for Advancing Translational Sciences (NCATS), 2018).
Hit rate of the full screen: of about 94,000 compounds, about 6,200 (6.6%) were called active. Entries that show only a call come without a potency. Inconclusive means that the source gave no clear call. Such entries were picked first, then a sample of the others. Calls come from the whole dose curve; as a rule, active = well fitted inhibition curve with a large enough effect; inconclusive = small, poorly fitted or top-dose-only effect; inactive = flat fitted curve, though single readings scatter. A potency beside an inconclusive call is a rough fit, not a confirmed value.

test: Cytotoxic Profiling in HEK 293 Cell Line of Diverse Libraries Using Quantitative High-Throughput Screening; conditions: HEK 293 viability, ATP luminescence (CellTiter-Glo), 48-72 h; series mostly up to 115 µM; note: nearly all actives have a fitted effect of over 60% in size
Summary of the method: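 ATP-coupled CellTiter-Glo luminescence served as viability read-out, recorded 10 min after reagent addition at room temperature. HEK 293 cells, 250 cells/well, had been incubated with pintool-transferred compound for 48 or 72 hr at 37 degree Celsius.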
Potency is the fitted concentration of half-maximal effect; tags give direction and shape of the fitted curve.

Structure (SMILES) | Potency
O=C(Cc1ccc(F)cc1)N1CCN(Cc2ccccc2-c2ccccc2F)CC1 | inconclusive: 56.2 µM [inhibitor, partial curve, poor fit]
Cc1nc(-c2ccco2)cc([C@H]2CN3CC[C@H]2C[C@@H]3CNC2CCOCC2)n1 | inconclusive: 100 µM [inhibitor, partial curve]
Cc1ccncc1C(=O)N1[C@H]2CC[C@@H]1c1cnc(-c3ccc(F)cc3)nc1C2 | inconclusive: 50.1 µM [inhibitor, partial curve, poor fit]
Cc1ccccc1OCC(=O)N1CCN(Cc2ccc(=O)n(C)c2)CC1 | inactive
COc1ccccc1-c1cc([C@H]2CN3CC[C@H]2C[C@@H]3COC(=O)Nc2ccc(C(C)C)cc2)nc(C)n1 | active: 5.01 µM
CCn1cc(CN2CCN(C(=O)Cc3cccs3)CC2)ccc1=O | inactive
CN(C)Cc1cn(C[C@H]2C[C@@H]3CCN2C[C@@H]3C(=O)NC2CC2)nn1 | inactive
CNC(C)c1cccnc1 (centres undefined) | inactive
O=C(c1ccccc1)N1C[C@@H]2C[C@H](C1)c1c(-c3cncnc3)ccc(=O)n1C2 | inactive
Cc1ncc2c(n1)C[C@@H]1CC[C@H]2N1C(=O)Nc1ccc2c(c1)OCCO2 | inactive
CN(C)C(=O)[C@H]1CN2CCC1C[C@@H]2Cn1cc(-c2cccc(O)c2)nn1 (some centres undefined) | inactive
COc1cc2c(cc1OCc1ccncc1)NC(=O)C21CCN(c2ncccn2)CC1 | active: 100 µM
CC(C)CN1Cc2ccccc2-n2ccnc2C12CCN(C(=O)c1ccsc1)CC2 | inconclusive: 50.1 µM [inhibitor, partial curve, poor fit]
COCCNC(=O)[C@H]1CN2CCC1C[C@@H]2Cn1cc(-c2ccc(-c3ccccc3)cc2)nn1 (some centres undefined) | inactive
CCOC(=O)[C@H]1CN(C(=O)NCc2ccccc2)[C@]2(C)C(=O)N(CCOC)c3ccccc3[C@H]12 | inactive
Nc1cccc(-c2cn(C[C@H]3CC4CCN3C[C@@H]4C(=O)NCc3ccccc3)nn2)c1 (some centres undefined) | inconclusive: 8.91 µM [inhibitor, full curve]
C=C[C@H]1CN2CC[C@H]1C[C@@H]2CNCc1cccc(C#N)c1 | inactive
Cc1ccnn1CC(=O)N1C[C@@H](c2ccc3c(c2)OCO3)[C@@H]2[C@H]1C1CCN2CC1 | inactive
COc1ccc2c(c1)C1(CCN(C(=O)c3cccc(C)c3)C1)C(=O)N2C (centres undefined) | inconclusive: 89.1 µM [inhibitor, single point]
CCOC(=O)[C@H]1CN(C(=O)c2ccno2)[C@]2(C)C(=O)N(CC3CC3)c3ccccc3[C@H]12 | inconclusive: 44.7 µM [inhibitor, single point]
CC(=O)NC[C@H]1C[C@@H]2CCN1C[C@@H]2c1cc(-c2cccs2)nc(C)n1 | inconclusive: 112 µM [inhibitor, partial curve, poor fit]
COc1cc2c(cc1OCc1ccccc1)NC(=O)C21CCN(C(=O)C2CCC2)CC1 | inconclusive: 89.1 µM [inhibitor, partial curve]

Structure (SMILES) | Potency
COc1cc2c(cc1OCc1ccccc1)N([S+](=O)([O-])c1cccc(C)c1)CC21CCN(C)CC1 | active: 28.2 µM
CCCS(=O)(=O)NC[C@H]1C[C@@H]2CCN1C[C@@H]2c1cc(C2CCCC2)nn1C | inactive
Cc1cccc(CC(=O)N2CC(N(Cc3ccccc3)C3CCOCC3)C2)c1 | inconclusive: 79.4 µM [inhibitor, partial curve]
Cc1cccc(CC(=O)N2[C@H]3CC[C@@H]2c2cnc(-c4ccc(F)cc4)nc2C3)c1 | inconclusive: 50.1 µM [inhibitor, partial curve, poor fit]
O=[S+]1([O-])NC2(CCN(CC3CCOCC3)C2)COc2ccncc21 (centres undefined) | inactive
COc1cccc(CN2CCCCCCNC(=O)[C@@H]3CCC[C@@H]32)n1 | inconclusive: 79.4 µM [inhibitor, single point]
Cc1nc(-c2cccs2)cc([C@H]2CN3CC[C@H]2C[C@@H]3CNC(=O)c2ccccc2)n1 | inconclusive: 31.6 µM [inhibitor, partial curve, poor fit]
COc1cc2c(cc1OCc1cccnc1)N(C(=O)Cc1cccc(Cl)c1)CC21CCN(CC(=O)O)CC1 | inactive
CN(CCc1ccccn1)C[C@H]1CN2CC[C@H]1C[C@@H]2CNC(=O)c1ccc(C(F)(F)F)cc1 | inconclusive: 89.1 µM [inhibitor, partial curve, poor fit]
O=C(NC1CC1)[C@H]1CN2CCC1C[C@@H]2Cn1cc(CCO)nn1 (some centres undefined) | inactive
O=C(CN1CCCC1=O)NCc1ccccc1C(F)(F)F | inactive
O=C(Nc1ccc(Cl)cc1)N1C[C@@H]2C[C@H](C1)c1c(-c3ccccc3F)ccc(=O)n1C2 | inactive
CCC(CC)c1cc([C@H]2CN3CC[C@H]2C[C@@H]3CNC(=O)COc2ccccc2)nc(-c2ccncc2)n1 | active: 28.2 µM
Cc1ccc([C@@H]2CN(C(=O)c3ccco3)[C@@H]3C4CCN(CC4)[C@@H]32)cc1 | inactive
CC(C)CN1Cc2ccccc2-n2ccnc2C12CCN(C(=O)c1ccco1)CC2 | active: 44.7 µM
COc1ccccc1-c1cc([C@H]2CN3CC[C@H]2C[C@@H]3CNS(=O)(=O)c2ccccc2)n(C)n1 | inconclusive: 79.4 µM [inhibitor, partial curve, poor fit]
CCOC(=O)[C@H]1CN(C(=O)OCC)[C@]2(C)C(=O)N(CCOC(C)=O)c3ccccc3[C@H]12 | inactive
CCOc1ccc(C(=O)N2CCC3(CC2)c2nccn2-c2ccccc2CN3C)cc1 | inactive
O=C(C1CCC1)N1[C@H]2CC[C@@H]1c1cnc(-c3ccccc3)nc1C2 | inconclusive: 50.1 µM [inhibitor, partial curve, poor fit]
O=C(NCc1ccc(F)cc1)[C@H]1CN2CC[C@H]1C[C@@H]2Cn1cc(-c2ccccc2)nn1 | inconclusive: 112 µM [inhibitor, partial curve, poor fit]
C#C[C@H]1CN2CC[C@H]1C[C@@H]2CNC(=O)Nc1cccc(SC)c1 | inactive
O=C(c1cnccn1)N1C[C@@H]2C[C@H](C1)c1c(-c3ccccc3)ccc(=O)n1C2 | inactive
